{"source": "the supplement of paper PMC4604168 (melanoma cell lines)", "note": "The list shows a part of the results. Most values come without repeats; read them as rough.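 Also: cell number obtained by counting DAPI-stained nuclei in high-throughput microscope images with image analysis software, screen run in 1,536-well plates.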"}
{"system": "MZ2-MEL", "assay": "cell count relative to DMSO control; melanoma cells; higher = more viable cells", "conditions": "library dose: low library concentration; 72 h", "units": {"cell count": "%"}}
{"smiles": "O=C(/C=C/c1cccnc1)NCCCCC1CCN(C(=O)c2ccccc2)CC1", "note": "+ C[C@]1(O)C[C@@H](c2nc(-c3ccc4ccc(-c5ccccc5)nc4c3)c3c(N)nccn32)C1 [OSI906] (first compound 0.01 µM, partner dose 0.4 µM)", "cell count": 42.1}
{"smiles": "Cc1ccc(Nc2nccc(N(C)c3ccc4c(C)n(C)nc4c3)n2)cc1S(N)(=O)=O", "note": "[Pazopanib] + CS(=O)(=O)CCNCc1ccc(-c2ccc3ncnc(Nc4ccc(OCc5cccc(F)c5)c(Cl)c4)c3c2)o1 [lapatinib] (first compound 0.4 µM, partner dose 0.8 µM)", "cell count": 65.7}
{"smiles": "O=C(/C=C/c1cccnc1)NCCCCC1CCN(C(=O)c2ccccc2)CC1", "note": "+ CO[C@H]1C[C@@H]2CC[C@@H](C)[C@@](O)(O2)C(=O)C(=O)N2CCCC[C@H]2C(=O)O[C@H]([C@H](C)C[C@@H]2CC[C@@H](OCCO)[C@H](OC)C2)CC(=O)[C@H](C)/C=C(\\C)[C@@H](O)[C@@H](OC)C(=O)[C@H](C)C[C@H](C)/C=C/C=C/C=C/1C [everolimus] (first compound 0.01 µM, partner dose 0.02 µM)", "cell count": 44.4}
{"smiles": "CC1(C)CCC(c2ccc(Cl)cc2)=C(CN2CCN(c3ccc(C(=O)NS(=O)(=O)c4ccc(N[C@H](CCN5CCOCC5)CSc5ccccc5)c(S(=O)(=O)C(F)(F)F)c4)cc3)CC2)C1", "note": "+ CO[C@H]1C[C@@H]2CC[C@@H](C)[C@@](O)(O2)C(=O)C(=O)N2CCCC[C@H]2C(=O)O[C@H]([C@H](C)C[C@@H]2CC[C@@H](OCCO)[C@H](OC)C2)CC(=O)[C@H](C)/C=C(\\C)[C@@H](O)[C@@H](OC)C(=O)[C@H](C)C[C@H](C)/C=C/C=C/C=C/1C [everolimus] (first compound 0.4 µM, partner dose 0.02 µM)", "cell count": 60.9}
{"smiles": "O=C(/C=C/c1cccnc1)NCCCCC1CCN(C(=O)c2ccccc2)CC1", "note": "+ Cn1cnc2c(F)c(Nc3ccc(Br)cc3Cl)c(C(=O)NOCCO)cc21 [selumetinib] (first compound 0.01 µM, partner dose 0.015 µM)", "cell count": 59.2}
{"smiles": "O=C(/C=C/c1cccnc1)NCCCCC1CCN(C(=O)c2ccccc2)CC1", "note": "+ Cc1cn(-c2cc(NC(=O)c3ccc(C)c(Nc4nccc(-c5cccnc5)n4)c3)cc(C(F)(F)F)c2)cn1 [nilotinib] (first compound 0.01 µM, partner dose 0.2 µM)", "cell count": 38.7}
{"smiles": "Cc1ccc(Nc2nccc(N(C)c3ccc4c(C)n(C)nc4c3)n2)cc1S(N)(=O)=O", "note": "[Pazopanib] + NC(=O)c1ccc(N(C(N)=O)c2c(F)cccc2F)nc1-c1ccc(F)cc1F [VX702] (first compound 0.4 µM, partner dose 0.4 µM)", "cell count": 76.1}
{"smiles": "Cc1ccc(Nc2nccc(N(C)c3ccc4c(C)n(C)nc4c3)n2)cc1S(N)(=O)=O", "note": "[Pazopanib] + Cc1nc(Nc2ncc(C(=O)Nc3c(C)cccc3Cl)s2)cc(N2CCN(CCO)CC2)n1 [dasatanib] (first compound 0.4 µM, partner dose 0.004 µM)", "cell count": 64.3}
{"smiles": "CC1(C)CCC(c2ccc(Cl)cc2)=C(CN2CCN(c3ccc(C(=O)NS(=O)(=O)c4ccc(N[C@H](CCN5CCOCC5)CSc5ccccc5)c(S(=O)(=O)C(F)(F)F)c4)cc3)CC2)C1", "note": "+ Cn1c(Nc2ccc(C(F)(F)F)cc2)nc2cc(Oc3ccnc(-c4ncc(C(F)(F)F)[nH]4)c3)ccc21 [CHIR265] (first compound 0.4 µM, partner dose 0.08 µM)", "cell count": 75}
{"smiles": "CC1(C)CCC(c2ccc(Cl)cc2)=C(CN2CCN(c3ccc(C(=O)NS(=O)(=O)c4ccc(N[C@H](CCN5CCOCC5)CSc5ccccc5)c(S(=O)(=O)C(F)(F)F)c4)cc3)CC2)C1", "note": "+ C=C(c1ccc(C(=O)O)cc1)c1cc2c(cc1C)C(C)(C)CCC2(C)C [Bexarotene] (first compound 0.4 µM, partner dose 2 µM)", "cell count": 89.6}
{"smiles": "CC1(C)CCC(c2ccc(Cl)cc2)=C(CN2CCN(c3ccc(C(=O)NS(=O)(=O)c4ccc(N[C@H](CCN5CCOCC5)CSc5ccccc5)c(S(=O)(=O)C(F)(F)F)c4)cc3)CC2)C1", "note": "+ Cc1cn(-c2cc(NC(=O)c3ccc(C)c(Nc4nccc(-c5cccnc5)n4)c3)cc(C(F)(F)F)c2)cn1 [nilotinib] (first compound 0.4 µM, partner dose 0.2 µM)", "cell count": 81.7}
{"smiles": "Cc1ccc(Nc2nccc(N(C)c3ccc4c(C)n(C)nc4c3)n2)cc1S(N)(=O)=O", "note": "[Pazopanib] + CO[C@H]1C[C@@H]2CC[C@@H](C)[C@@](O)(O2)C(=O)C(=O)N2CCCC[C@H]2C(=O)O[C@H]([C@H](C)C[C@@H]2CC[C@@H](OCCO)[C@H](OC)C2)CC(=O)[C@H](C)/C=C(\\C)[C@@H](O)[C@@H](OC)C(=O)[C@H](C)C[C@H](C)/C=C/C=C/C=C/1C [everolimus] (first compound 0.4 µM, partner dose 0.02 µM)", "cell count": 62.3}
{"smiles": "Cc1ccc(Nc2nccc(N(C)c3ccc4c(C)n(C)nc4c3)n2)cc1S(N)(=O)=O", "note": "[Pazopanib] + Cn1nnc2c(C(N)=O)ncn2c1=O [temozolomide] (first compound 0.4 µM, partner dose 2 µM)", "cell count": 73.7}
{"smiles": "CC1(C)CCC(c2ccc(Cl)cc2)=C(CN2CCN(c3ccc(C(=O)NS(=O)(=O)c4ccc(N[C@H](CCN5CCOCC5)CSc5ccccc5)c(S(=O)(=O)C(F)(F)F)c4)cc3)CC2)C1", "note": "+ COc1ccc(C2=N[C@@H](c3ccc(Cl)cc3)[C@@H](c3ccc(Cl)cc3)N2C(=O)N2CCNC(=O)C2)c(OC(C)C)c1 [Nutlin-3] (first compound 0.4 µM, partner dose 0.1 µM)", "cell count": 101}
{"smiles": "Cc1ccc(Nc2nccc(N(C)c3ccc4c(C)n(C)nc4c3)n2)cc1S(N)(=O)=O", "note": "[Pazopanib] + CNC(=O)c1cc(Oc2ccc(NC(=O)Nc3ccc(Cl)c(C(F)(F)F)c3)cc2)ccn1 [sorafenib] (first compound 0.4 µM, partner dose 0.4 µM)", "cell count": 77.3}
{"smiles": "CC1(C)CCC(c2ccc(Cl)cc2)=C(CN2CCN(c3ccc(C(=O)NS(=O)(=O)c4ccc(N[C@H](CCN5CCOCC5)CSc5ccccc5)c(S(=O)(=O)C(F)(F)F)c4)cc3)CC2)C1", "note": "+ CCCS(=O)(=O)Nc1ccc(F)c(C(=O)c2c[nH]c3ncc(Cl)cc23)c1F [PLX4720] (first compound 0.4 µM, partner dose 0.08 µM)", "cell count": 83.9}
{"smiles": "CC1(C)CCC(c2ccc(Cl)cc2)=C(CN2CCN(c3ccc(C(=O)NS(=O)(=O)c4ccc(N[C@H](CCN5CCOCC5)CSc5ccccc5)c(S(=O)(=O)C(F)(F)F)c4)cc3)CC2)C1", "note": "+ CS(=O)(=O)CCNCc1ccc(-c2ccc3ncnc(Nc4ccc(OCc5cccc(F)c5)c(Cl)c4)c3c2)o1 [lapatinib] (first compound 0.4 µM, partner dose 0.8 µM)", "cell count": 92.4}
{"smiles": "Cc1ccc(Nc2nccc(N(C)c3ccc4c(C)n(C)nc4c3)n2)cc1S(N)(=O)=O", "note": "[Pazopanib] + Nc1cccc2c1CN(C1CCC(=O)NC1=O)C2=O [lenalidomide] (first compound 0.4 µM, partner dose 1 µM)", "cell count": 75}
{"smiles": "Cc1ccc(Nc2nccc(N(C)c3ccc4c(C)n(C)nc4c3)n2)cc1S(N)(=O)=O", "note": "[Pazopanib] + COC(=O)c1sccc1S(=O)(=O)Nc1ccc(Nc2ccccc2)cc1OC [GSK0660] (first compound 0.4 µM, partner dose 1 µM)", "cell count": 79.3}
{"smiles": "O=C(/C=C/c1cccnc1)NCCCCC1CCN(C(=O)c2ccccc2)CC1", "note": "+ CN1CCN(c2ccc3nc(-c4c(N)c5c(F)cccc5[nH]c4=O)[nH]c3c2)CC1 [Dovitinib] (first compound 0.01 µM, partner dose 0.1 µM)", "cell count": 46.2}
{"smiles": "O=C(/C=C/c1cccnc1)NCCCCC1CCN(C(=O)c2ccccc2)CC1", "note": "+ Nc1cccc2c1CN(C1CCC(=O)NC1=O)C2=O [lenalidomide] (first compound 0.01 µM, partner dose 1 µM)", "cell count": 43.7}
